# Results reported in PubChem BioAssay AID1671193 (National Center for Advancing Translational Sciences (NCATS), 2021).
# About 180 (0.12%) of roughly 150,000 compounds were called active. The inconclusive results got no clear call from the source; some entries with a clear call stand among them for comparison. Calls come from the whole dose curve; as a rule, active = well fitted cell-killing curve with a large enough effect; inconclusive = small, poorly fitted or top-dose-only effect, or effect the other way; inactive = flat fitted curve, though single readings scatter. Where the call is inconclusive, the potency comes from a doubtful curve fit.
# Assay: GF-AFC viability counterscreen for inhibitors of alpha-synuclein gene (SNCA) expression; note: nearly all actives have a fitted effect of over 30% in size;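 for activity change, negative = cytotoxicity: 0% = DMSO-treated cells and -100% = medium-only wells without cells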
# Conditions: HEK-293-SNCA-luc viability, GF-AFC fluorescence, 24 h; activity change, negative = cytotoxicity: at 57.1 µM (top of the series) unless noted
# Procedure, shortened: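 HEK-293-SNCA-luc cells (1500/well) plated 24 h, then exposed 24 h to a dilution series; GF-AFC added 30 min at 37C, fluorescence 405/540 nm; normalised to medium-only and DMSO wells, Hill fit.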
# Potency is the fitted concentration of half-maximal effect; tags give direction and shape of the fitted curve.
Compound,Potency,"activity change, negative = cytotoxicity"
CCCN1CCN(c2ncnc3sc(C(=O)Nc4c(C)cc(C)cc4C)c(C)c23)CC1,"inconclusive: 15.8 µM [cytotoxic, partial curve, poor fit]",
COc1cc(Cl)c(C)cc1NC(=O)Cn1cccc1-c1nc(-c2ccc(F)cc2)no1,"inconclusive: 7.08 µM [cytotoxic, single point]",
COc1cccc(Nc2ncc3nc(-c4ccc(Cl)cc4)c(=O)n(C4CC4)c3n2)c1,"inconclusive: 3.16 µM [rising, partial curve, poor fit]",
C[C@@H](CN1CCC(n2c(=O)[nH]c3cc(Cl)ccc32)CC1)NC(=O)c1ccc2ccccc2c1,"inconclusive: 16.8 µM [cytotoxic, partial curve, poor fit]",
Cc1noc(C)c1-c1nc(NCCN2CCOCC2)c2ccccc2n1,"inconclusive: 22.4 µM [cytotoxic, partial curve, poor fit]",
Cc1cc(C)n(Cc2ccc(C(=O)NCC3CCCCC(=O)N3)o2)n1 (centres undefined),inactive,
CC(C(=O)N1CCCN(c2cc(-c3ccc(Cl)cc3)[nH]n2)CC1)c1ccccc1 (centres undefined),"inconclusive: 39.8 µM [cytotoxic, single point]",
COc1ccc(-c2cc(N3CCCC(NC(=O)c4cccn4C)C3)n[nH]2)cc1 (centres undefined),inactive,
CCCNC(=O)N1CCCC(c2nc(C3CCOCC3)no2)C1 (centres undefined),inactive,
CC(=O)Nc1ccc(C(=O)NC[C@@H]2C=C(C)[C@H](Cc3nnc(-c4ccccc4F)o3)C[C@H]2C(C)C)cc1,"inconclusive: 31.6 µM [cytotoxic, single point]",
O=C(Nc1ccc2c(N3CCCC3)ncnc2c1)c1ccc(Br)cc1,"inconclusive: 22.4 µM [cytotoxic, partial curve, poor fit]",
COc1ccc([C@H]2C[C@@H](O)[C@@H](O)[C@@H]2NC(=O)Nc2ccc(C(F)(F)F)cc2)cc1,"inconclusive: 22.4 µM [cytotoxic, partial curve]",
CCc1nc(C(N)=O)c(Nc2ccc(N3CCC(N4CCN(C)CC4)CC3)c(OC)c2)nc1NC1CCOCC1,"inconclusive: 0.736 µM [cytotoxic, full curve, poor fit]",
CCc1ccc(NS(=O)(=O)c2c(C)nc3sc(CC)nn3c2=O)cc1,"inconclusive: 10 µM [rising, partial curve]",
CC1=C[C@@H](CNC(=O)COc2ccccc2)[C@H](C(C)C)C[C@H]1Cc1nnc(-c2cncn2C)o1,"inconclusive: 15.8 µM [cytotoxic, partial curve]",
CN(Cc1ccc(F)cc1)Cc1ccsc1,"inconclusive: 50.1 µM [cytotoxic, single point]",
C=C(C)C(=O)O[C@H]1[C@H]2C(=C)C(=O)O[C@@H]2C[C@@H](C)[C@@H]2O[C@@H]2C(=O)[C@](C)(O)[C@@H]1OC(=O)C(=C)C,"inconclusive: 14.6 µM [cytotoxic, single point]",
COc1cccc(C(=O)N2CCN(c3cc(-c4cccs4)[nH]n3)CC2)c1OC,inactive,
O=C1CC(c2ccccc2)N(C(=O)CNC(=O)c2ccco2)CCCCCCN1 (centres undefined),"inconclusive: 0.708 µM [cytotoxic, partial curve, poor fit]",
COc1ccc(-c2nc3scc(CCNS(=O)(=O)c4c(C)cc(C)cc4C)n3n2)cc1OC,"inconclusive: 14.1 µM [cytotoxic, partial curve, poor fit]",
COc1ccc(CN2Cc3[nH]cnc3C[C@H]2C(=O)NCc2ccccc2)c2ccccc12,"inconclusive: 31.6 µM [cytotoxic, single point]",
CCc1ccccc1N1CC(c2nc3ccccc3n2CCOc2ccc(Cl)c(C)c2)CC1=O (centres undefined),"inconclusive: 25.1 µM [cytotoxic, single point]",

Compound,Potency,"activity change, negative = cytotoxicity"
CC(C)(C#N)c1ccc(-c2cc(CO)ccn2)cc1,inactive,
CC1=C(/C=C/C(C)=C/C=C/C(C)=C/C(=O)Nc2ccc(O)cc2)C(C)(C)CCC1,"inconclusive: 39.8 µM [cytotoxic, single point]",
COCCC1(NC(=O)C(C)c2ccccc2)CCN(S(C)(=O)=O)CC1 (centres undefined),active: 20 µM,
CCc1nc2c(c(-c3ccc(Cl)cc3)n1)CN(C(=O)Nc1ccc(Cl)cc1)CC2,"inconclusive: 10 µM [cytotoxic, partial curve, poor fit]",
O=C(NC1CCCCC1)c1ccc2nnc(C3CC3)n2c1,inactive,
CCN(CC)C(=O)N1CC(Oc2cccc(-c3nc(C)no3)c2)C1,inactive,
CCCc1noc(-c2cccn3c(CNC(=O)c4ccccc4Cl)nnc23)n1,inactive,
COc1ccc(CN2Cc3[nH]nc(-c4cccc(O)c4)c3CC2=O)cc1,inactive,
COc1ccc(NC(=O)CSc2nc3c(oc4ccccc43)c(=O)n2-c2ccccc2)cc1OC,"inconclusive: 1.78 µM [cytotoxic, full curve, poor fit]",
COc1ccc(CN2CCN(c3ccnc(C)n3)CC2CCO)c(C)c1C (centres undefined),inactive,
CCOc1ccc(C(=O)c2cn(Cc3cccc(OC)c3)c3cc4c(cc3c2=O)OCO4)cc1,"inconclusive: 44.7 µM [cytotoxic, single point]",
COc1ccccc1C(=O)Nc1ccnn1C1CCN(c2nccc(N)n2)CC1,inactive,
CN(C)C/C=C/C(=O)Nc1cc2c(Nc3ccc(F)c(Cl)c3)ncnc2cc1OC1CCOC1 (centres undefined),"inconclusive: 16.8 µM [cytotoxic, partial curve, poor fit]",
CCCNC(=O)NC[C@@H]1C=C(C)[C@H](Cc2nc3ccc(OC)cc3[nH]2)C[C@H]1C(C)C,active: 28.2 µM,
COc1ccc([C@H]2C[C@@H](O)[C@@H](O)[C@@H]2NCc2cccc(OC)c2)cc1,inactive,
COc1ccc(C2Cn3cnc(C(=O)N4CCC(C(=O)Nc5ccc(F)c(F)c5)CC4)c3CO2)cc1 (centres undefined),inactive,
COc1cccc(-c2ccc3c(N)c(C(=O)c4ccc(F)cc4)sc3n2)c1,"inconclusive: 20 µM [rising, partial curve]",
COc1ccc2c(c1)OC[C@]1(O)c3cc4c(cc3O[C@H]21)OCO4,inactive,
O=c1c2cccnc2n(Cc2cccc(F)c2)c(=O)n1Cc1ccc(F)cc1,"inconclusive: 3.98 µM [rising, full curve, poor fit]",
Cc1ccc2nc3c(cc(C(=O)NC4CCCC4)c(=N)n3C(C)C)c(=O)n2c1,"inconclusive: 20 µM [rising, partial curve]",
Cc1nc(CN2CC3(CCN(C)C3)c3cc(C(=O)NCCc4ccccc4)ccc32)cs1 (centres undefined),inactive,
COC1CCC(N(C(=O)C2CCC(C)CC2)c2cc(C3=CCCCC3)sc2C(=O)O)CC1 (centres undefined),"inconclusive: 21.5 µM [cytotoxic, partial curve]",

Compound,Potency,"activity change, negative = cytotoxicity"
COc1ccc(-c2cc3ccc(O)c(CN4CCN(C)CC4)c3oc2=O)cc1OC,"inconclusive: 25.1 µM [rising, partial curve]",
COC(=O)N1CCC2(C1)C(=O)N(CCc1ccccc1)c1ccccc12 (centres undefined),"inconclusive: 56.2 µM [cytotoxic, single point]",
CCc1nc2ccc(C(=O)N3CCN(c4cccc(Cl)c4)CC3)cc2nc1CC,"inconclusive: 35.5 µM [cytotoxic, single point]",
COc1ccc(NC(=O)Cn2c(-c3cccc(Cl)c3)nc(C)c(CCO)c2=O)cc1OC,"inconclusive: 10 µM [cytotoxic, partial curve]",
CC(C)N1C(=O)C2(CCCC2)C1C(=O)Nc1cccnc1 (centres undefined),"inconclusive: 39.8 µM [cytotoxic, single point]",
O=c1[nH]c2cccnc2n1C1CCCC1,"inconclusive: 8.91 µM [cytotoxic, single point]",
CCOC(=O)C1=CN(CC(=O)Nc2ccccc2Cl)S(=O)(=O)N=C1C,inactive,
CC[C@@H](C)[C@H]1C(=O)O[C@H](C(C)C)C(=O)N(C)[C@@H](C(C)C)C(=O)O[C@H](C(C)C)C(=O)N(C)[C@@H](C(C)C)C(=O)O[C@H](CC(C)C)C(=O)N1C,"inconclusive: 11.2 µM [cytotoxic, single point]",
CN1C(=O)C2(CCN(C(=O)c3ccnn3C)CC2)c2ccccc21,inactive,
CCCC1=Nc2cc(C(=O)NC3CCCCC3)ccc2Sc2ccc(C)cc21,"inconclusive: 5.01 µM [cytotoxic, full curve, poor fit]",
COc1cccc(CC(=O)Nc2c(C(=O)N3CCN(c4ccccc4F)CC3)oc3ccccc23)c1,"inconclusive: 2.51 µM [cytotoxic, full curve, poor fit]",
COc1ccc(CCNC(=O)Cn2c(=O)nc(-c3ccccc3)c3cc(Cl)ccc32)cc1OC,"inconclusive: 0.891 µM [cytotoxic, full curve, poor fit]",
CCOc1ccc(NC(=O)c2c(NCc3cc(OC)c(OC)cc3OC)sc3c2CCCC3)cc1,inactive,
COc1ccc(-c2cc3c(=O)n(CCNC(=O)c4cc(Cl)ccc4F)ccn3n2)cc1,inactive,
CCN1c2cc(C(=O)Nc3ccc(C)cc3C)ccc2C(=O)N2CCCCCC21 (centres undefined),,inactive: 11.5% [at 12.5 µM]
OCC1CN(c2ncccn2)CC12CCN(C1CCSCC1)CC2 (centres undefined),inactive,
COc1cc(C2CC(=O)c3c([nH]c(C(=O)OC4CCCC4)c3C)C2)cc(OC)c1OC (centres undefined),"inconclusive: 39.8 µM [cytotoxic, single point]",
CCc1ccc(S(=O)(=O)N2CCN(C3CCN(Cc4ccccn4)C3=O)CC2)cc1 (centres undefined),inactive,
O=C(COc1ccccc1)NCc1nnc2ccc(-c3ccc(Cl)cc3)nn12,inactive,
Cc1nn(-c2ccc(C(C)(C)C)cc2)c(C)c1[C@@H]1C=C[C@@H](NC(=O)NCc2ccccc2)C1,"inconclusive: 10 µM [cytotoxic, full curve, poor fit]",
